The source of these data is PMC10726135.

The list shows a part of the results. At the low end of the ranking the order means little. Measured with an extract: partners may take part in the binding.

For the assay, the target named is T1, HNF4alpha2 (COS-7 nuclear extract) (UniProt P41235).
T1 sequence: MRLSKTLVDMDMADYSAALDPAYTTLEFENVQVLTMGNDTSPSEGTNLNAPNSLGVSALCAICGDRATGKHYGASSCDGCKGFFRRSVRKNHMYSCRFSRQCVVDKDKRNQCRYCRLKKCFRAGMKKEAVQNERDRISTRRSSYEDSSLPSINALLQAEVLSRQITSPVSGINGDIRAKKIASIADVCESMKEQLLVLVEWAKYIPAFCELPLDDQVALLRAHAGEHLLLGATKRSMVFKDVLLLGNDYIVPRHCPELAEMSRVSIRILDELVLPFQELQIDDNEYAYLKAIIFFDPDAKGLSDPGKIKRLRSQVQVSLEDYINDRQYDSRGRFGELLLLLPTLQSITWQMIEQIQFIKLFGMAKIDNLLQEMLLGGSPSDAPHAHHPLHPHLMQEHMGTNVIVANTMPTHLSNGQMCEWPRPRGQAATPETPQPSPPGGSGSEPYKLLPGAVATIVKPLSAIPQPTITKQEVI
The assay can be described thus: protein-binding microarray. The conditions noted are these: COS-7 nuclear extract on double-stranded Agilent 4x180k PBM; binding buffer, salt, pH and temperature not given; high values mean tight binding; double strand, one strand shown; sequences stand for … in …GCCTAGGGAGATTAGAGTATCGGTCGA
On to ATTTGTGATCTGGCACAAATTCTAGATTCA, for which the binding signal (log2 normalized intensity) was -1.08.

Regarding AAACACCTAGAGTTACAGTCACTCCCTATC, the binding signal (log2 normalized intensity) was -1.12.

Regarding AACCTGTTGGGTCAGGCTGCTCAGCTGCCT, the binding signal (log2 normalized intensity) is -1.15.

In the case of CCAGCCTGGCCTCTAGAGTGGTTGCCTGTG, the binding signal (log2 normalized intensity) was -0.807.

Turning to CAGTCGATCTTTGACCGCTGCCTCCCACCC, the binding signal (log2 normalized intensity) turned out to be 3.94.

On to TTTGAAAGAAAGAGACCTTTACCCTGACCT, for which the binding signal (log2 normalized intensity) came out at 3.55.

For the sequence TTCATTAAAAAAAAAAAAAAATACTCCTAT, the binding signal (log2 normalized intensity) is -1.07.

GGGACTGCAAGTACGATTGGCTGGACATCT: the binding signal (log2 normalized intensity) is -1.06.

For GTACCAAAATCACACTGGGAATTGGGATGG, the binding signal (log2 normalized intensity) is -1.08.

With TACCATGTCCTGTGATTAAGGTCAATGGGA, the binding signal (log2 normalized intensity) was 2.07.

On to TGGGGTACTTGAACCCTACTCATAATTGCT, for which the binding signal (log2 normalized intensity) is -0.0331.

Take CAGTTCAAAAGTTCAAAGATATGATGGCCA: the binding signal (log2 normalized intensity) came out at 1.79.

For the sequence ATCCACAAAGATAAGAAAAAAACAGCACAA, the binding signal (log2 normalized intensity) is -1.03.

Turning to AACCCAAGGCCAAACACGGACAGGCAGGCC, the binding signal (log2 normalized intensity) was -1.14.

With TTGACCTCTCTCTCCTAACTATGGTCACGC, the binding signal (log2 normalized intensity) is 2.37.

For the sequence CTGCACTGACCTTTACCCATTCCTTAGTGC, the binding signal (log2 normalized intensity) was determined as 4.37.

Regarding CATCCATATCATTAGTCTCTGCTGGCTTTC, the binding signal (log2 normalized intensity) was 0.888.

Consider TTAGTTTCTTTACCATGTGTTGGCACTTTG, for which the binding signal (log2 normalized intensity) amounted to 1.43.

With ACTTAGCTCTTTAGGAATGCAACTCTAACC, the binding signal (log2 normalized intensity) is -1.06.

As for ACACTGGGCTAGAGGTCTTAATCTTTTTAC, the binding signal (log2 normalized intensity) amounted to 0.69.

In the case of CGCAGCCGCGCTCCGCCCCGTTCCCGGCAG, the binding signal (log2 normalized intensity) was -1.17.

Regarding GGCCAAGGGATTTCAGTGCCCTCATAAGAG, the binding signal (log2 normalized intensity) is -1.05.

With AATTAGCTTGAGCGAGACAGCGGGTGTTTC, the binding signal (log2 normalized intensity) was -1.12.

Regarding TCAGCAGTTGTTCAAAGTCCATGTGTTAAA, the binding signal (log2 normalized intensity) was determined as 4.35.

Consider AATAGGGTGACAGTATCAAAGTCCCCAGAT, for which the binding signal (log2 normalized intensity) came to 2.12.

Consider GAATATTTAAGATTCCAGCTCTCGGATCCT, for which the binding signal (log2 normalized intensity) was -1.17.

Consider ACATGATGTCAGTTTGACTCCAAAGGGCTG, for which the binding signal (log2 normalized intensity) was -0.999.

For GATATTTTTCAGACCTTGCATTCTGAGGAA, the binding signal (log2 normalized intensity) was -1.02.

For the sequence GTCCAAAGTCTTTGTTCCTAGCCACCATGC, the binding signal (log2 normalized intensity) came out at 0.798.

On to ATCCTCATTGTGTGCAGACCTTCTCTGGCC, for which the binding signal (log2 normalized intensity) turned out to be 1.23.

For TAAAACTGCAGATTGACTCAGGCATTCTGA, the binding signal (log2 normalized intensity) is -0.529.

ATTCTAGAGGTCAGAAGTCCAAAATCAGTC: the binding signal (log2 normalized intensity) is 3.83.

With GGCTTCGTCCCTGGGGCCCCACTGGGGTGG, the binding signal (log2 normalized intensity) was -0.964.

As for TATTAAATGGAATACTTGCCTAAGGTCAAT, the binding signal (log2 normalized intensity) was determined as 1.44.

Regarding TCTGCCCCCTACACAGAGGAGCGACCCAGG, the binding signal (log2 normalized intensity) worked out at 2.83.

In the case of CTTGGTATCAGCTTTGAGACACCTGGCCAA, the binding signal (log2 normalized intensity) is -0.971.

As for AGAGGCCAATTTCTTGTCTGGTCCGAAGGT, the binding signal (log2 normalized intensity) is 1.56.

For CTTATCTACTTTAAGATTTGACCCTTGGCC, the binding signal (log2 normalized intensity) stood at 7.08.

Turning to GGGAATTCAAGGAATGCAGCTCAGACTGCT, the binding signal (log2 normalized intensity) is -1.22.

With GCATGGTGCTTCGCACTTCAGCACCATAAA, the binding signal (log2 normalized intensity) came out at 0.242.

As to TTTTAGAATTAACTAAAAGTATCTAAGGGC, the binding signal (log2 normalized intensity) was -1.06.

For the sequence TTGCCTCATGTTTGCAGAATGGCTGATGTA, the binding signal (log2 normalized intensity) was found to be 1.73.

Take ATTCCGGCCGTATCAGAAGAACTGCACTGT: the binding signal (log2 normalized intensity) is -0.304.

Consider AAAGGCAACATCTTGAGCCAGGAATGCAAG, for which the binding signal (log2 normalized intensity) is -1.11.

Regarding AGGCTCAGAGGTCAAGTCACTGCTCAAAAA, the binding signal (log2 normalized intensity) was determined as 0.902.

Take GACTCCTCCCTCAGCCTGAACCTCTGTCTC: the binding signal (log2 normalized intensity) was found to be 0.818.

For GCCATCTGGTGGACTTTGCTCTGCTCATTT, the binding signal (log2 normalized intensity) turned out to be 6.26.

With TAGCAACCAAGTACCGCAAACAAGGTGGCT, the binding signal (log2 normalized intensity) is -1.08.

For ACTTTGTAGCTCAAACAGTCTAAAAACCAT, the binding signal (log2 normalized intensity) was -1.17.

In the case of ACTTTGACTTCCATTGTGTTGCAGATGATC, the binding signal (log2 normalized intensity) came out at 1.63.

Consider TTGGTACCTCCCCCCACACCATTAGAGAAC, for which the binding signal (log2 normalized intensity) worked out at 5.39.

Consider CTTTGAGAAAGCAAAGTCCCTGGGGACAGG, for which the binding signal (log2 normalized intensity) was -0.0595.

Consider GGAATGAATCAGAATTTGGAGAATTCAGAC, for which the binding signal (log2 normalized intensity) is -1.09.

On to CTGGATTCTCAAACCTTCCAAAGTTCAACC, for which the binding signal (log2 normalized intensity) is 3.18.

On to ACACACACACACACACACATTGCAGTATGC, for which the binding signal (log2 normalized intensity) was -1.13.

CTCCCCCACCACTGCTTCCTGCCCCCTGTG: the binding signal (log2 normalized intensity) was determined as 5.91.

For the sequence TCATGTTCAATATACAGTTGGTATTTAGTA, the binding signal (log2 normalized intensity) was found to be 1.83.

As for GCCCTACAGCTCCTGAGTCCACATGAGCCT, the binding signal (log2 normalized intensity) was -0.819.

For AGCAAAAAGTTTGGACTAGCCACAGGGGAA, the binding signal (log2 normalized intensity) was -1.12.

Regarding AACAGCCCCATGAGATAGGTACTATTATTA, the binding signal (log2 normalized intensity) is -0.144.

For CTGGCCATGCCCCAGATGCCCAGCAGAGGG, the binding signal (log2 normalized intensity) was -0.881.

Regarding CCCTAATTACATATTAACCTTTGCCCCAGC, the binding signal (log2 normalized intensity) was found to be 6.63.

Consider AGCAAACAATGATGAAAGGAGCTTGGGAAG, for which the binding signal (log2 normalized intensity) is -1.18.

On to GTTTCACCCTGAGGAATCCCATTCCCTCTA, for which the binding signal (log2 normalized intensity) is -0.941.

Turning to CTGGGCAGATAACAGCGAACATGAGGAATA, the binding signal (log2 normalized intensity) was -0.76.

Consider AAGAGATAAAAGAGAAGATAATGGATTGGG, for which the binding signal (log2 normalized intensity) is -0.492.

Consider GTGAGGTCACAGTATTCATTCCCCTAGTAT, for which the binding signal (log2 normalized intensity) was 2.55.

Take AGCAGGACACCAAACAGACCTCCCCCAACT: the binding signal (log2 normalized intensity) worked out at 3.87.

GGACACAAAGAGTTCAGAGAGGGATTAAAG: the binding signal (log2 normalized intensity) is -1.14.
